Like-named read-outs stand apart in the source and are kept apart here.
Test system: COVID-19

Structure (SMILES): NC(=O)c1cccnc1 [Nicotinamide, nicotinamide]
- Change in fatigue: constant, % (patients with cough, fever and taste loss, n = 6, week 4 compared to baseline): 16.67%
- Change in fatigue: constant, % (patients with cough, fever and taste loss, n = 6, week 6 compared to baseline): 33.33%
- Change in fatigue: constant, % (patients with fever and taste loss, n = 8, week 4 compared to baseline): 12.50%
- Change in fatigue: constant, % (patients with fever and taste loss, n = 8, week 6 compared to baseline): 25.00%

Source: patent US20230414599A1, “NICOTINAMIDE, NICOTINAMIDE PRECURSORS AND NICOTINAMIDE METABOLITES AND COMPOSITIONS THEREOF FOR REDUCING THE TIME TO RESOLUTION OF SYMPTOMS IN PATIENTS WITH COVID-19 AND OTHER VIRAL INFECTIONS” (CONARIS RESEARCH INSTITUTE AG, priority 2020, published 2023)
